Reference: the supplement of paper PMC12217912
The list shows a part of the results. Sequences were assembled here from the parent chain. Inactive controls read about 0.05.

B1: TEV protease; numbered along this chain (parent)
chain: MGESLFKGPRDYNPISSSICHLTNESDGHTTSLYGIGFGPFIITNKHLFRRNNGTLVVQSLHGVFKVKDTTTLQQHLVDGRDMIIIRMPKDFPPFPQKLKFREPQREERICLVTTNFQTKSMSSMVSDTSCTFPSGDGIFWKHWIQTKDGQCGSPLVSTRDGFIVGIHSASNFTNTNNYFTSVPKNFMELLTNQEAQQWVSGWRLNADSVLWGGHKVFMVKPEEPFQPVKEATQL

Variants of: B1
Experiment: raw area under fraction-flipped curve 0-4 h after induction (AUC4h, not background-subtracted), DNA-recorder readout of cleavage of the substrate (dimensionless); higher = more cleavage of the substrate by the protease variant
Details: temperature: 34 °C; time window: 0-4 h after rhamnose induction
Protocol: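 In vivo DNA recorder in E. coli TOP10(DE3) ΔrhaA at 34 °C. Each TEVp single-site mutant (parent TEVp 0) is paired with a single-site variant of the 7-mer TEVs (canonical ENLYFQ|S). The substrate sits between flexible linkers in a Bxb1-sfGFP-TEVs-SsrA fusion, so cleavage stabilises Bxb1 and speeds flipping of a recombination array, read by NGS. The value is the raw area under the fraction-flipped curve over 0-4 h after rhamnose induction (AUC4h), with ≥20 reads per time point. It is not background-subtracted; inactive controls average about 0.047.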
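Further: Bxb1 expression induced with 0.2% (w/v) L-rhamnose at OD600 near 0.5, cultures sampled hourly, flipped fraction per protease–substrate barcode pair counted by paired-end Illumina sequencing.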

| Variant | area with substrate ENLYCQS | area with substrate ENLYHQS | area with substrate ENLYMQS | area with substrate ENLYNQS | area with substrate ENLYRQS | area with substrate ENLYTQS | area with substrate ENLYWQS | area with substrate ENLYYQS | area with substrate ENLYDQS | area with substrate ENLYIQS | area with substrate ENLYPQS | area with substrate ENLYQQS | area with substrate ENLYVQS | area with substrate ENLYEQS | area with substrate ENLYGQS | area with substrate ENLYSQS | area with substrate ENLYKQS | area with substrate ENLYLQS |
| --- | --- | --- | --- | --- | --- | --- | --- | --- | --- | --- | --- | --- | --- | --- | --- | --- | --- | --- |
| MGESLFKGPRDYNPISSSICHLTNESDGHTTSLYGIGFGPFIITNKHLFRRNNGTLVVQSLHGVFKVKDTTTLQQHLVDGRDMIIIRMPKDFPPFPQKLKFREPQREERICLVTTNFQTKSMSSMVSDTSCTSPSGDGIFWKHWIQTKDGQCGSPLVSTRDGFIVGIHSASNFTNTNNYFTSVPKNFMELLTNQEAQQWVSGWRLNADSVLWGGHKVFMVKPEEPFQPVKEATQL [F133S] | 0.0965 | 0.0925 | 0.0707 | 0.047 | 0.0214 | 0.0745 | 0.0848 | 0.0619 | – | – | – | – | – | – | – | – | – | – |
| MGESLFKGPRDYNPISSSICHLTNESDGHTTSLYGIGFGPFIITNKHLFRRNNGTLVYQSLHGVFKVKDTTTLQQHLVDGRDMIIIRMPKDFPPFPQKLKFREPQREERICLVTTNFQTKSMSSMVSDTSCTFPSGDGIFWKHWIQTKDGQCGSPLVSTRDGFIVGIHSASNFTNTNNYFTSVPKNFMELLTNQEAQQWVSGWRLNADSVLWGGHKVFMVKPEEPFQPVKEATQL [V58Y] | 0.0487 | 0.054 | 0.0576 | 0.0448 | – | – | – | – | 0.0518 | 0.0817 | 0.0554 | 0.0388 | 0.0672 | – | – | – | – | – |
| MGESLFKGPRDYNPISSSICHLTNESDGHTTSLYGIGFGPFIITNKHLFRRNNGTLVVQSLHGVFKVKDTTTLQQHLVDGRDMIIIRMPKDFPPFPQKLKFREPQREERICLVTTNFQTKNMSSMVSDTSCTFPSGDGIFWKHWIQTKDGQCGSPLVSTRDGFIVGIHSASNFTNTNNYFTSVPKNFMELLTNQEAQQWVSGWRLNADSVLWGGHKVFMVKPEEPFQPVKEATQL [S121N] | 0.0732 | 0.0617 | 0.0904 | 0.0573 | 0.0538 | 0.103 | 0.0914 | 0.0628 | – | 0.106 | 0.0775 | 0.0577 | 0.132 | 0.0569 | 0.0716 | – | – | – |
| MGESLFKGPRDYNPISSSICHLTNESDGHTTSLYGIGFGPFIITNKHLFRRNNGTLVVQSLHGVFKVKDTTTLQQHLVDGRDMIIIRMPKYFPPFPQKLKFREPQREERICLVTTNFQTKSMSSMVSDTSCTFPSGDGIFWKHWIQTKDGQCGSPLVSTRDGFIVGIHSASNFTNTNNYFTSVPKNFMELLTNQEAQQWVSGWRLNADSVLWGGHKVFMVKPEEPFQPVKEATQL [D91Y] | 0.0728 | 0.0796 | 0.0744 | – | – | – | 0.0796 | 0.0706 | 0.0594 | – | 0.0821 | 0.0391 | – | – | 0.0723 | 0.0911 | – | – |
| MGESLFKGPRDYNPISSSICHLTNESDGHTTSLYGIGFGPFIITNKHLFRRNNGTLVVQSLHGVFKVKDTTTLQQHLVDGRDMIIIRMPKDFPPFPQKLKAREPQREERICLVTTNFQTKSMSSMVSDTSCTFPSGDGIFWKHWIQTKDGQCGSPLVSTRDGFIVGIHSASNFTNTNNYFTSVPKNFMELLTNQEAQQWVSGWRLNADSVLWGGHKVFMVKPEEPFQPVKEATQL [F101A] | 0.0576 | 0.0481 | – | 0.0492 | – | – | 0.0627 | 0.0765 | 0.0553 | – | – | 0.0508 | 0.0694 | – | 0.0594 | – | 0.0457 | 0.0729 |
| MGESLFKGPRDYNPISSSICHLTNESDGHTTSLYGIGFGPFIITNKHLFRRNNGTLVVQSLHGVFKVKDTTTLQQHLVDGRDMIIIRMPKDFPPFPQKLKFREPQREKRICLVTTNFQTKSMSSMVSDTSCTFPSGDGIFWKHWIQTKDGQCGSPLVSTRDGFIVGIHSASNFTNTNNYFTSVPKNFMELLTNQEAQQWVSGWRLNADSVLWGGHKVFMVKPEEPFQPVKEATQL [E108K] | 0.0578 | 0.0571 | 0.0702 | – | – | – | – | 0.0439 | 0.0451 | – | 0.0406 | – | 0.0722 | 0.06 | – | – | 0.0379 | – |
| MGESLFKGPRDYNPISSSICHLTNESDGHTTSLYGIGFGPFIITNKHLFRRNNGTLVVQSIHGVFKVKDTTTLQQHLVDGRDMIIIRMPKDFPPFPQKLKFREPQREERICLVTTNFQTKSMSSMVSDTSCTFPSGDGIFWKHWIQTKDGQCGSPLVSTRDGFIVGIHSASNFTNTNNYFTSVPKNFMELLTNQEAQQWVSGWRLNADSVLWGGHKVFMVKPEEPFQPVKEATQL [L61I] | 0.0827 | 0.0879 | 0.0679 | 0.0616 | – | 0.0982 | – | – | – | – | – | 0.0574 | 0.127 | 0.0795 | – | 0.041 | – | – |
| MGESLFKGPRDYNPISSSICHLTNESDGHTTSLYGIGFGPFIITNKHLFRRNNGTLVVQSLHGVFKVKDTTTLQQHLVDGRDMIIIRMPKDFPPEPQKLKFREPQREERICLVTTNFQTKSMSSMVSDTSCTFPSGDGIFWKHWIQTKDGQCGSPLVSTRDGFIVGIHSASNFTNTNNYFTSVPKNFMELLTNQEAQQWVSGWRLNADSVLWGGHKVFMVKPEEPFQPVKEATQL [F95E] | 0.0696 | 0.055 | 0.0414 | 0.0401 | 0.0606 | 0.0661 | 0.0379 | 0.0531 | 0.0519 | – | 0.0263 | – | 0.0526 | 0.054 | 0.0492 | 0.0494 | 0.0451 | – |
| MGESLFKGPRDYNPISSSICHLTNESDGHTTSLYGIGFGPFIITNKHLFRRNNGTLVVQSLHGVFKVKDTTTLQQHLVDGRDMIIIRMPKDQPPFPQKLKFREPQREERICLVTTNFQTKSMSSMVSDTSCTFPSGDGIFWKHWIQTKDGQCGSPLVSTRDGFIVGIHSASNFTNTNNYFTSVPKNFMELLTNQEAQQWVSGWRLNADSVLWGGHKVFMVKPEEPFQPVKEATQL [F92Q] | 0.0678 | 0.0534 | 0.0705 | 0.0713 | – | – | 0.0777 | 0.0796 | 0.0496 | 0.122 | 0.0689 | 0.06 | 0.108 | 0.0656 | 0.0661 | 0.0672 | 0.0587 | 0.0641 |
